This passage reports binding results from publication PMC8938449.

Results are given in words; binding and its absence hold for the method and conditions named. In cells and extracts the contact can be indirect. Some results given as binding are weak or reduced against the parent protein; the word gives no strength.

Test [1] addresses T1, WT Siwi, expressed in BmN4 cells (Bombyx) (UniProt A8D8P8).
T1 sequence: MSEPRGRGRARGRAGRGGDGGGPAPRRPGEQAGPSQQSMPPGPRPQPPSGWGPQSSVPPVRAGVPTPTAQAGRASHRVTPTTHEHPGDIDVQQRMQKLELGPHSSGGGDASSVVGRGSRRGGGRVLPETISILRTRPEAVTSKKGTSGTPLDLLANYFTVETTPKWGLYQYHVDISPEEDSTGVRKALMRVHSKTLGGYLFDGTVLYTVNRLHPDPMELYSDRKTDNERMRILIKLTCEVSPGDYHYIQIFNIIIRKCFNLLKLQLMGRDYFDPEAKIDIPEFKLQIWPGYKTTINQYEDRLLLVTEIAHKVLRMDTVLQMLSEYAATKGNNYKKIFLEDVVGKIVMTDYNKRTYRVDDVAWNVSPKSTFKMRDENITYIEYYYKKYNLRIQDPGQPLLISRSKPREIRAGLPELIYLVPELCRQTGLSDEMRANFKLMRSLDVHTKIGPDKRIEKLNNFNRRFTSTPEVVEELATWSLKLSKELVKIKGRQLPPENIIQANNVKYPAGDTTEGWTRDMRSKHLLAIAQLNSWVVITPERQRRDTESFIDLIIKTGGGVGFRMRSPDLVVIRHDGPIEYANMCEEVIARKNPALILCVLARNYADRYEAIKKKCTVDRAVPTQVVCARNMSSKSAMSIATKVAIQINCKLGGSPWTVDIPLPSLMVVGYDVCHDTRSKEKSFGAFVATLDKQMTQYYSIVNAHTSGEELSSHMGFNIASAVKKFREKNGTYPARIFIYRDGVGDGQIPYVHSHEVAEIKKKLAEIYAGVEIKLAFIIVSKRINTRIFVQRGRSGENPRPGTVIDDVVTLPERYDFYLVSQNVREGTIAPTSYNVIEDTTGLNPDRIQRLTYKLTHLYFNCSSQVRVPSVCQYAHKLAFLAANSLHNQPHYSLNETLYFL
Put plainly: co-IP; immunoprecipitation from the mitochondrial fraction of BmN4 cells that expressed WT Siwi or Siwi K611A under WT Siwi-free conditions; Papi detected with anti-Papi and anti-Papi-pSer547.

The target in test [2] is T2, Siwi K611A mutant (Bombyx) (UniProt A8D8P8).
T2 sequence: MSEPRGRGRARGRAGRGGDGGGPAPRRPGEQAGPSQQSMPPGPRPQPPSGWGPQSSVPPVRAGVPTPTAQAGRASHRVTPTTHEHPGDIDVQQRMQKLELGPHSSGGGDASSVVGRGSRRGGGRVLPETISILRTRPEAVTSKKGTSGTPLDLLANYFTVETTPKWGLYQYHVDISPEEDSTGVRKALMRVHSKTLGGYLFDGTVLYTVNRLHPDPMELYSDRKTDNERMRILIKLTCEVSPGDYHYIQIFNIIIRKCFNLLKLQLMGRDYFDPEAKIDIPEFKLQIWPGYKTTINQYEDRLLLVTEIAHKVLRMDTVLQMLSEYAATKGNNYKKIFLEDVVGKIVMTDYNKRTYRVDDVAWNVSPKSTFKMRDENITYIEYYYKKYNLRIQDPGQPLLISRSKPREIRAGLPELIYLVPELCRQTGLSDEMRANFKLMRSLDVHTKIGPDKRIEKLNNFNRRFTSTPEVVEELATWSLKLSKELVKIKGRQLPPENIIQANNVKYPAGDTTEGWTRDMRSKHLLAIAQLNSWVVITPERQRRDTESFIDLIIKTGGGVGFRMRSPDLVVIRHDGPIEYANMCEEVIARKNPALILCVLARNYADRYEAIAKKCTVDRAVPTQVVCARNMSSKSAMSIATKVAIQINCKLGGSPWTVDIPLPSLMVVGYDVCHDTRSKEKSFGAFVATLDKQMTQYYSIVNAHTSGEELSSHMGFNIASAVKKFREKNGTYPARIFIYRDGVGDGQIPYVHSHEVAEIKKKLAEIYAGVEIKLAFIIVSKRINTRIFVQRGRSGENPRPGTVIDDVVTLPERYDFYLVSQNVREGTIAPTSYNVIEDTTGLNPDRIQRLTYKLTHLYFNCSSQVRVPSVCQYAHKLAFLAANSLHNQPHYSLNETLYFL
The description is as above.

B1: Papi, endogenous (protein, UniProt H9JD76 1-629)
chain: MSLNTKLALPIALGLSLVTVTAFVAYYVLKRDEEENDNKTVKITKINTIEIHVPKSIVPALIGRNGSNIKDLQKKSGAQIHFKKFTDQDYDVCVVRGRADTTQLAETLIHDFIKQQPTIMSESITVPSWSCGRIIGSGGENVNDISHRSGARVKVESPKSTDKVAEHLVTFRGTKEQIEVAKKLVENCVSLERCRREIEQSKRPPRHSSSPPSPCPSPGDRDADADAQGDVDHTRVKYKRPETTGPSIEVYVSAVSSPSRFWVQFVGPQVAQLDDLVAHMTEYYSKKENREAHTLRHVSVGQVVAAVFRHDGRWYRARVHDIRPNEFDSSQQVADVFYLDYGDSEYVATHELCELRADLLRLRFQAMECFLAGVRPASGEEAVSPSGQTWDKWHPQAVERFEELTQVARWKALVSRTCTYKKTATAEGEKDKEIPGIKLFDVTDEGELDVGAVLVAEGWAVAGPAPSPRPSPPRGHTTPFGDLSKSKVLSMTGGGGRSSSVPKDHKDDGSNVLTVEGDDSKDKDGITASKSLASGLEKSDRHPLSISNFDLSYPDPSRNKQLNGSDDFLHGERQNIDNEITIDTLVPPSPLSNAPILSKTLQDEFKANMNRIDSHHSNLENLGKSAFEK
In the case of B1, the binding entry in test [1] and in test [2] was “binds” in each case.
